The list shows a part of the results.
B1: chr4:25749455:25749456:-_ENSG00000091490_ENST00000264868|hu_hu|hu_hu_hu_mus_False|1_58 (ssRNA)
RNA: GGGAGUUCUACAGUCCGACGAUCGCACUAUGACCUCUAGAAAAAUCCACAGGGGGAAAAAAUGUAAACCAAUGUACAAAGCUAUUGCCUUCCCUGUGUGUGGAGUGUUUGUCUCAAGGCUCCUUCUAGCUGCUGGACUGCUAGCAACAGAGGAUUGAGCAUCA
B2: chr14:66974463:66974464:+_ENSMUSG00000022044_ENSMUST00000074523|mus_hu|mus_mus_mus_hu_False|58_68 (ssRNA)
RNA: GGGAGUUCUACAGUCCGACGAUCUUGUAGGACGACUUAUUCAGGGGAUCGGCCAGGAAGCAGGAGCAGAACAGAGACACUAGUGGGAGCUCCUUCAUCUUCUCUUUGUAGGCAGCAAGGGUCAUGUUUCUGGGAUCUGGUGGCCAACAGAGGAUUGAGCAUCA
B3: 11078906_11080581_693_CDS_ENSG00000120948_ENST00000240185|human|control|control (ssRNA)
RNA: GGGAGUUCUACAGUCCGACGAUCCUGAGAGAAGAACUCCCGCAGCUCAUCCUCAGUCAUGUCCUCUGUACAGCGCCCCACAAACACUUUUCUGCUUCUCAAAGGCUCAUCUUGGCUUUGCUUAGAAUUAGGAAGUUUGCAGUCCAACAGAGGAUUGAGCAUCA
B4: chr2:216981417:216981418:+_ENSG00000079246_ENST00000392132|hu_hu|hu_hu_hu_mus_True|18_68 (ssRNA)
RNA: GGGAGUUCUACAGUCCGACGAUCCUGAUACUGGUCCUUGCCAGCAAGGGCAUUAUCAGUGCCAUCUGUACCAAACAGGACUAACGCAAUCUCAUCUUUGCUCUCCGAAAAUACCUGUCGCUGUACAAACAUAGUCAUCACUUUCAACAGAGGAUUGAGCAUCA
B5: 83881777_83885685_1300_3pUTR_ENSG00000013375_ENST00000513973|human|control|control (ssRNA)
RNA: GGGAGUUCUACAGUCCGACGAUCCCUGGUUAAACAAGUCAAUAAUGUUUUCAAGCAUCUUAGCAGCUUUUCUUUUCUUAUCUUCCAGUUGUUCUGCUGAUUGUUUUAUCUUCAUUUCAACAGCUGUACUAAACAGUGCAGUGCCAACAGAGGAUUGAGCAUCA
B6: chr6:38652254:38652255:-_ENSG00000124767_ENST00000373365|hu_hu|hu_hu_hu_mus_False|28_108 (ssRNA)
RNA: GGGAGUUCUACAGUCCGACGAUCCGAAAACUUCAUAGCAGGGAAGUCAAGCUUCUGCAGGAGGGUCAGUCCAAGAACCCUCGUAUAAAAAUCCAGGGACUUCUUAGGAUCCUUCACUCUUAGCAUCGUUUGCUGCAGUAGAAACAACAGAGGAUUGAGCAUCA

Biological target: T1, UNK ZnF1-3 (human, UniProt Q9C0B0 31-174)
T1 sequence: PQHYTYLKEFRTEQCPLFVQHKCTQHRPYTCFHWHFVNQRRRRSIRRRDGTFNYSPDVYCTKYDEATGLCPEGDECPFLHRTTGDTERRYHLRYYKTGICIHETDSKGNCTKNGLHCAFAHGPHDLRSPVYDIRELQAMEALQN
Test: nsRBNS (natural sequence RNA bind-n-seq); RBNS binding buffer (assumed for nsRBNS): 25 mM Tris pH 7.5, 150 mM KCl, 3 mM MgCl2, 0.01% Triton X-100, 500 ug/ml BSA, 20 U/ml SUPERase-In, 4 C; UNK is unkempt and MSI1 is Musashi-1; names of the RNAs are library labels; protein concentration not given here; high values mean tight binding

Row | Binder | binding signal
1 | B1 | 0.988 enrichment R
2 | B2 | 2.24 enrichment R
3 | B3 | 0.918 enrichment R
4 | B4 | 0.757 enrichment R
5 | B5 | 0.393 enrichment R
6 | B6 | 0.426 enrichment R

— paper PMC12136788
